Read counts are not given, so values of variants with three or more changes are uncertain.
B1: CPEB3 Ribozyme (parent)
chain: UAACAGGGGGCCACAGCAGAAGCGUUCACGUCGCAGCCCCUGUCAGAUUCUGGUGAAUCUGCGAAUUCUGCUGUAUAUCUC

Variants of: B1
Assay: self-cleavage, relative activity (ratio to wild type); higher = more cleavage; in vitro, sequencing
In short: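 Libraries of CPEB3 self-cleaving ribozyme mutants came from rounds of error-prone PCR and carried barcodes, which DNA sequencing matched to variants. In vitro transcription used T7 RNA polymerase at 37°C for 5 hours, with a further 15 min in DNase I before EDTA stopped the reaction; the ribozymes cleaved during both steps. The RNA was reverse transcribed with template switching and sequenced on Illumina. Relative activity is the cleaved/total read fraction of a variant divided by that of the unmutated ribozyme, averaged over three batches with at least 5 reads.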

Variant | self-cleavage
C62A U69C U74C | 0.3
C62A U76A U78C | 0.16
C62U A64U U72C U80C | 0.25
C62U A65G U69A | 0.18
C62U A65G U78A | 0.15
C62U A65U U67A | 0.35
C62U A75G U80C | 0.47
C62U U67A C71U | 0.23
C62U U69A A75U U76A | 0.27
C62U U72C A75G | 0.21
C62U U76C U78C | 0.21
G63A A65G U67C | 0.43
G63A A65G U69A | 0.34
G63A A65G U69A U74A | 0.26
G63A A65U U67C G73U | 0.65
G63A U66C U69C | 0.27
G63A U72C U74C | 1.17
G63C A64C U69A U78A | 0.22
G63C A65G U72A | 0.37
G63C A65U U66C U69A | 0.27
G63C U67C U74C | 0.25
G63U A65G U66C | 0.1

Variant | self-cleavage
G63U C71A U74A U80C | 1.08
G63U U72C U78C | 1.22
A64G A65G U69C U72A A77G | 0.3
A64G A65G U69G C71U U72C | 0.18
A64G A77G U78C | 0.46
A64G G70A C81U | 0.38
A64G U66A U67C | 0.35
A64G U66C A77G | 0.25
A64G U66C C71G C81U | 0.22
A64G U66C U67A U72C | 0.23
A64G U66C U76A A77G | 0.15
A64G U69A U76A | 0.34
A64G U69A U80C | 0.36
A64G U74A C79U | 1.2
A64G U74C A75U | 1.32
A64G U80C C81U | 1.06
A64U U69A U78C U80A | 0.45
A64U U69G U80A | 0.23
A64U U72G A75U | 0.34
A65C U69A U80A | 0.37
A65G A75U C79U | 0.68
A65G A77G U78C | 0.19

Variant | self-cleavage
A65G C71G U72C | 0.2
A65G C71U U72C U80C | 0.3
A65G U66C C81U | 0.22
A65G U66C G73A | 0.18
A65G U66C G73C | 0.26
A65G U66C U69C | 0.12
A65G U67A G73U | 0.2
A65G U67C U78C | 0.22
A65G U67C U78G | 0.21
A65G U69C U72A U76C | 0.18
A65G U69C U74C U78C | 0.34
A65G U72A A77U | 0.38
A65G U72A U80A | 0.58
A65G U74A C79A | 1.05
A65G U74C C81U | 0.98
A65G U78C U80C | 0.21
A65U U67C U74C U80A | 0.23
A65U U69C U72A | 0.24
A65U U76C U78C | 0.23
U66A U76C U78G | 0.54
U66A U76C U80C | 0.49
U66C C79U U80C | 0.31

Variant | self-cleavage
U66C U67C U80C | 0.15
U66C U67G C71G | 0.14
U66C U69G U72C | 0.29
U66C U72C U74A | 0.63
U66C U72G A77U | 0.36
U66G U67C C81A | 0.24
U66G U78C U80C | 0.25
U67A U72C G73U | 0.69
U67A U78C U80C | 0.3
U67C A77G C81U | 0.36
U67C A77G U80C | 0.29
U67C U72C U76C | 0.26
U67C U72C U78C U80C | 0.24
U67C U74C U78G | 0.43
U67C U78A U80C | 0.3
C68A U74C U80C | 0.67
C68G A75U C81U | 0.45
C68G U72C U78C | 0.42
C68U U69A A75U | 0.33
C68U U72G C79A U80A | 1.2
C68U U72G U80C | 1.11
U69A A75C U78C | 0.95

Variant | self-cleavage
U69A A77U U78A | 1.02
U69A U72A A77G | 0.4
U69C A75U U78C | 0.53
U69C C71U U72C | 0.28
U69C U72C A77U | 0.2
U69C U72C U74C | 0.44
U69C U72C U78C | 0.39
U69C U74A U80C | 0.88
G70A A77U C79U | 0.71
G70A U72C U74C | 0.36
G70A U72C U78C | 0.39
G70A U76C A77G | 0.42
G70C U72C A75U | 0.32
U72A A75G U78C | 1.04
U72C A77U U78C | 1.2
G73A U76C U78C | 1.3
G73U A77U U78C | 1.27
U74C A75U U80C | 1.14
A77U U78C C79G U80C | 1.18
U78C C79G U80C | 1.25

— the RNAGym collection of RNA variant scans (doi:10.1093/nar/gkz1192)
